Source: the supplement of paper PMC3334620
Over roughly 33,000 sequences, “E-score (-0.5 to 0.5)” has its median near -0.054; the highest 2% begin near 0.35. The list shows a part of the results.

target: T1, Stb5 (UniProt P38699); experiment: PBM E-score (8-mer binding enrichment) (E-score (-0.5 to 0.5)); higher = stronger / more preferred TF binding; most listed sequences are background and not binding sites; conditions: protein concentration: 200 nM; construct: GST-full length
T1 sequence: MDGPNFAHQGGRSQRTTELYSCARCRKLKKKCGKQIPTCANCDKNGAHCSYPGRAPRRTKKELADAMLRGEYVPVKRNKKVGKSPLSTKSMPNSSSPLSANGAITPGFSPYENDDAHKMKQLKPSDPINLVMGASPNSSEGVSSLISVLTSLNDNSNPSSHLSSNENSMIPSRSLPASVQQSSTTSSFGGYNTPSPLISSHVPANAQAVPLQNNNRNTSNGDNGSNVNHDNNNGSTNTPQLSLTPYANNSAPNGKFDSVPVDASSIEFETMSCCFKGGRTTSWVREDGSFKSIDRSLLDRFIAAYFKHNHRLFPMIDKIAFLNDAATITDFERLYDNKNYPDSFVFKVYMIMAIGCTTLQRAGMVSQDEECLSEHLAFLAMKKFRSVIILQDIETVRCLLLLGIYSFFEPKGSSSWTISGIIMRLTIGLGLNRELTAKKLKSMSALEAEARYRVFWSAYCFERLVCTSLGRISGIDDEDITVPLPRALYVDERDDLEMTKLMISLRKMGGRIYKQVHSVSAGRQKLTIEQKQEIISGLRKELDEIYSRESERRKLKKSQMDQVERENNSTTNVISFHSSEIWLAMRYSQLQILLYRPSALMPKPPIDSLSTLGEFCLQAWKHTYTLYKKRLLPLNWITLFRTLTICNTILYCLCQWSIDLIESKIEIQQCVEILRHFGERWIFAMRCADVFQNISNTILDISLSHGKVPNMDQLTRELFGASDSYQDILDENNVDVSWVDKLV
Method in brief: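 E-scores (a modified Wilcoxon-Mann-Whitney statistic) were assigned by the Universal PBM Analysis Suite to every ungapped eight-base word pooled with its reverse complement. The input came from universal all-10-mer Agilent arrays made double-stranded by primer extension and probed with GST-tagged yeast transcription factors at about 100-200 nM. Fluorescent anti-GST detected bound protein, and masliner normalised the scans.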

Row | Sequence | PBM E-score
1 | AGCGACTC | -0.182
2 | AATAAATA | 0.166
3 | GGTGAAAA | 0.348
4 | CGCAGAGA | -0.168
5 | AGCATGGA | -0.248
6 | AGCGACAG | 0.0707
7 | CAAAATAG | -0.0506
8 | AAAAGTCT | -0.224
9 | AACGTAAC | -0.138
10 | CATCAAGA | -0.0407
11 | TGAATACA | 0.103
12 | GGGGGCAA | 0.0433
13 | ACTCCCTG | -0.167
14 | CAGACCTC | -0.0421
15 | AAGTCGTA | -0.288
16 | ATATATCG | 0.17
17 | CAGGGCAA | -0.261
18 | AGTCAACA | -0.167
19 | GGCGGCGA | 0.343
20 | AGAGCATC | -0.00326
21 | TACGGCGA | 0.23
22 | GTACAATA | -0.0293

Row | Sequence | PBM E-score
23 | CCTATAAC | -0.0335
24 | CCGAGTAC | 0.11
25 | CATTCAAC | -0.128
26 | ATTAGATG | -0.112
27 | TTAAAGAA | -0.0293
28 | CATCCGGC | 0.204
29 | TAAGGGAA | -0.25
30 | ACACCCAC | -0.0403
31 | CCTCGGCC | 0.02
32 | CGTTATAC | 0.112
33 | AGTAACTA | -0.0945
34 | CAAATAAG | -0.0124
35 | TACCGCTA | 0.306
36 | TAGCCGAA | -0.116
37 | CGTGTGGA | -0.0163
38 | CTTAGTCC | 0.137
39 | TCACTAGA | -0.0582
40 | AGACACTC | -0.193
41 | AGAACCGC | 0.247
42 | CAGTAATG | -0.281
43 | GTCGCCGA | 0.19
44 | GCAGTAAC | -0.0304

Row | Sequence | PBM E-score
45 | AACCCGTC | 0.183
46 | ATACTCTA | 0.115
47 | GAGACACA | -0.123
48 | AAAAACTA | -0.107
49 | ACTTCAAC | 0.00725
50 | AATCACCC | -0.132
51 | GCTGTAAC | -0.0068
52 | AGAGGGGC | -0.192
53 | AAAGATAC | -0.0426
54 | ACCGCCTC | 0.313
55 | ACAGATCT | -0.27
56 | AAGGTCGC | 0.118
57 | CTATTCAG | -0.222
58 | AAGGCAAC | -0.0794
59 | CAGATTTA | 0.0385
60 | ACGGGACA | 0.151
61 | GCCCAAGA | -0.114
62 | AAGATCCT | -0.223
63 | AATTGAGG | -0.193
64 | ATATATCA | 0.0402
65 | ACCAAACT | -0.18
66 | ACCATGAA | -0.105

Row | Sequence | PBM E-score
67 | GTGCATAA | 0.0658
68 | GTGGTCCA | -0.249
69 | ATGCCAGA | -0.121
70 | CGGGCGCC | 0.0407
71 | AGTTGGCC | -0.13
72 | GCTTCCAC | -0.109
73 | AAATCGTG | -0.0622
74 | GTGAAAGA | 0.135
75 | TACCGCGA | 0.324
76 | AGTAGTTG | -0.0997
77 | CTGACCTC | -0.129
78 | CACCTCAC | -0.0496
79 | ATCAGAAG | -0.0945
80 | AGGCAGCG | 0.0612
81 | GCCGGACC | 0.281
82 | CTTGTATC | -0.0468
83 | TGAGTGAA | -0.173
84 | GATGTCCA | -0.0983
85 | CAAGGAAG | -0.0845
86 | GAGATACC | 0.168
